According to patent publication US20260209350A1 (Alector, published 2026):

B1: Ab23 (antibody, human IgG1, V domains shown)
VH: [… about 100 residues …]LGGHSMDVWGQGTTVTVSS
VL: DIVMTQSPDSLAVSLGERATINCKSSQSVLYSSNNKNYLAWYQQKPGQPPKLLISWASTRESGVPDRFSGSGSGTDFTLTISSLQAEDVAVYYCQQAYLPPITFGGGTKVEIK
notes: human IgG1
B2: Ab59 (antibody, human IgG1, V domains shown)
VH: [… about 100 residues …]GGVWYSLFDIWGQGTMVTVSS
VL: DIQMTQSPSSLSASVGDRVTITCQASQDISNYLNWYQQKPGKAPKLLIYDASNLETGVPSRFSGSGSGTDFTFTISSLQPEDIATYYCQQHIALPFTFGGGTKVEIK
notes: human IgG1

How the values were obtained:
[1] = molecular target: T1, mouse TREM2 on cells (mouse, UniProt Q99NH8 19-227); assay: FACS, mTrem2 cells
T1 construct: whole, on cells; Used for the recombinant protein on BWZ/BW cells (with mouse DAP12) and for the native protein on mouse macrophages and dendritic cells; the cell type stands under assay; also called mTREM2; mTrem2
T1 sequence (looked up): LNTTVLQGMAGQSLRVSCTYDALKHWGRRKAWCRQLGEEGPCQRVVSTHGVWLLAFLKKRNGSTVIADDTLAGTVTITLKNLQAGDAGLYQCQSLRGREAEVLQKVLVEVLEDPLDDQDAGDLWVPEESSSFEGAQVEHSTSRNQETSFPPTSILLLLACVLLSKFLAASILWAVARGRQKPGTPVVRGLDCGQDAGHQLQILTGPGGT

[2] = molecular target: T2, human TREM2 Fc fusion protein (human, UniProt Q9NZC2 19-174); assay: ForteBio or MSD-SET, avid
T2 construct: also called hTREM2-Fc; not shown: Fc part not specified
T2 sequence: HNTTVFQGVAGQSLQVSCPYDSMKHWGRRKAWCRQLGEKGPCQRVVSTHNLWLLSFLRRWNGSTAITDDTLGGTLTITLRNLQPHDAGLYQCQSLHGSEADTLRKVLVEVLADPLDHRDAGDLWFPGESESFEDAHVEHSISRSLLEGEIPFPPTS

[3] = molecular target: T3, mouse TREM2 Fc fusion protein (mouse, UniProt Q99NH8 19-171); assay: ForteBio or MSD-SET, avid
T3 construct: also called mTREM2-Fc; not shown: Fc part not specified
T3 sequence (looked up): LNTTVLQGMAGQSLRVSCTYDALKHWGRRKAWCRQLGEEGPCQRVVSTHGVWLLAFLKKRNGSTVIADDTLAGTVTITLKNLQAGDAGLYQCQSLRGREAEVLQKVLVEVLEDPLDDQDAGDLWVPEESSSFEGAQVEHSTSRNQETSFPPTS

[4] = molecular target: T4, human monomeric His tagged TREM2 protein (human, UniProt Q9NZC2 19-174); assay: ForteBio or MSD-SET, monovalent
T4 construct: also called hTREM2-HIS
T4 sequence: T2 sequence

| Binder | MFI [1] [MFI] | Kd [2] [nM] | Kd [3] [nM] | Kd [4] [nM] |
| --- | --- | --- | --- | --- |
| B1 | 919 | 0.967 | 6.83 | – |
| B2 | 3900 | 0.854 | – | 5.72 |
